# Measurements reported in PMC12040169 (PLOS Biology, 2025).
# The other results are listed elsewhere or left out.
# System: T1, C. trachomatis L2/434/Bu expressing GFP (CTL2-GFP)
# T1 construct: L2/434/Bu GFP intracellular growth in HeLa cells
# Design: species or system HeLa; C. trachomatis total inclusion area by high-content imaging, normalised to DMSO
# Conditions: total inclusion area; 28.5 h, 10 µM; inhibitor
# Description: In this process, we also complemented the assay described above with an imaging-based readout (Fig 1B). After measurements of bulk GFP and resorufin fluorescence, cells were fixed, stained with the DNA dye Hoechst, and imaged at a high-content imaging platform to detect chlamydial inclusions (GFP) and host cell nuclei (Hoechst). The total area and number of inclusions in individual wells and the number of nuclei then served as additional proxies for chlamydial growth and host cell viability. […] MICs were calculated as described above.
row,Structure (SMILES),% of control remaining
1,COc1ccccc1-c1ccc(CC2(C(=O)NCCc3ccccc3)CCOCC2)cc1 [CBK286516],86.5371
2,Cc1cccc(-c2nc(C3CCCNC3)n3ccccc23)c1 (stereo not drawn) [CBK035528],82.523
3,COc1cccc(CNC(C(=O)O)c2ccc3c(c2)OCO3)c1 (stereo not drawn) [CBK015420D],24.6805
4,O=C(COc1ccc2oc3ccccc3c2c1)c1ccccc1 [CBK268931],102.681
5,Cc1csc(-c2ccc(C(=O)N(C)CCN(C)C)c(N(C)C)n2)c1 [CBK106088],84.3583
6,c1cc(COc2cncc(N3CCCC3)n2)cs1 [CBK115669],111.996
7,N#Cc1ccc(CNC2(Cc3cc(C(=O)N4CCCCC4)on3)COC2)cc1 [CBK289672],110.316
8,CCCc1cc(C(N)=O)c(NC(=O)c2sc3ccccc3c2Cl)s1 [CBK268178],89.9489
9,CN(C(=S)NCc1ccccc1)C1CC[C@@]2(c3ccc(F)cc3)CCN(C)[C@H]2C1 (stereo partly drawn) [CBK003500C],88.2358
10,Cc1cc(N2CCC(c3cc(CCOc4ccc(Cl)cc4)[nH]n3)C2)nc(C)n1 (stereo not drawn) [CBK286119],56.885
11,O=C(CC1CCCO1)N1CCn2c(nnc2-c2cncc(Br)c2)C1 (stereo not drawn) [CBK304762],101.614
12,O=S(=O)(Nc1cccc2[nH]ccc12)c1ccc(F)cc1 [CBK153522],85.5967
13,COc1cc(=O)n(C)c(C)n1 [CBK007924],114.719
14,COCc1nc2n(n1)CC(NC1CCCCc3ccccc31)CC2 (stereo not drawn) [CBK304445],66.1648
15,O=C(c1ccc(F)cc1)[C@H]1CCCN(C(=O)c2n[nH]c3c2CCC3)C1 [CBK282322],90.8761
16,Cc1cc(C)n(C(C)CC(=O)Nc2cccc(OC(C)C)c2)n1 (stereo not drawn) [CBK281538],99.1275
17,CCN(CC)C(=O)C1CCCN(C(=O)Nc2ccc(Cl)cc2)C1 (stereo not drawn) [CBK156136],112.077
18,CCC(Sc1nnc(-c2ccc([N+](=O)[O-])cc2)n1C)C(=O)Nc1ccc(Cl)cc1 (stereo not drawn) [CBK265785],84.2221
19,Nc1nc(/C=C/c2cccs2)nc(-c2ccccc2O)n1 [CBK270033],88.5466
20,CCOc1cc(/C=C2/SC(=S)N(c3cccc(Cl)c3)C2=O)ccc1OCC(=O)O [CBK264966],83.959
21,O=C(O)CCc1ccc(S(=O)(=O)NCc2ccccc2)cc1 [CBK287054],73.6354
22,COc1ccnc(N2CCN(C(=O)c3ccncc3Cl)CC2)n1 [CBK304367],50.8931
23,CS(=O)(=O)Nc1nccnc1OC1CCN(CC2CCCCC2)CC1 [CBK084284],89.9022
24,O=c1c2cnc3ccnn3c2ccn1C1CCCC1 [CBK288074],6.4521
25,Cc1nc(-c2ccccc2)sc1CNC(=O)/C=C\C(=O)Nc1ccc(F)cc1 [CBK092357],111.417
26,CC(Cn1cccn1)C(=O)N1CCc2sccc2C1C (stereo not drawn) [CBK282074],90.3915

row,Structure (SMILES),% of control remaining
1,CN(C)c1cccc(Nc2cc(-c3cccc([N+](=O)[O-])c3)ncn2)c1 [CBK091012],88.4662
2,Cc1ccc(Cl)cc1N(CC(=O)Nc1ccccc1C(=O)O)S(C)(=O)=O [CBK264020],128.477
3,O=C(NCCCn1ccnc1)c1cc(-c2ccccc2Cl)nc2ccccc12 [CBK262656],106.918
4,O=C(NCc1cccs1)C1(c2ccccc2)CCCC1 [CBK149533],110.696
5,O=C(NCC(c1cccnc1)N1CCOCC1)c1cnc(-c2ccc(Cl)cc2)c(-c2ccco2)c1 (stereo not drawn) [CBK037554],144.534
6,Fc1ccccc1-c1nccnc1NCc1cccs1 [CBK038088],142.56
7,CCc1nn(CCN2CCCC2)c(=O)c2cc3sc(C)cc3n12 [CBK284098],90.5922
8,CC(C)c1ccc(S(=O)(=O)Nc2ccc(O)c(Sc3nc[nH]n3)c2)cc1 [CBK266861],96.1358
9,CS(=O)(=O)Nc1ccc(CC#N)cc1 [CBK038145],28.8908
10,CN(C(=O)C1CC1)C1CCN(c2ncnc3ccccc23)CC1 [CBK304946],57.3747
11,Cc1ccc(C#N)c(S(=O)(=O)Nc2cc(N3C[C@@H](C)N[C@@H](C)C3)c3occc3c2)c1 [CBK034756C],68.0007
12,NC(=O)N1CCC(C(=O)N2CC3(CCCC3)c3c(F)cccc32)CC1 [CBK304973],43.4598
13,CN1CCN(c2ccc(-c3cncc(N4CCN(c5ccncc5)CC4)n3)cn2)CC1 [CBK065144],82.7199
14,COc1ccc(N2CCN(c3cncc(-c4cc(OC)c(OC)c(OC)c4)n3)CC2)cc1OC [CBK037988],91.9514
15,CC(=O)Nc1cccc(-c2cnc3[nH]c(=O)n([C@@H](C)c4ccccc4)c3n2)c1 [CBK064159],83.8129
16,O=C(O)c1ccc2c(c1)C(=O)N(c1ccc(-c3ccnc(-c4ccc(N5C(=O)c6ccc(C(=O)O)cc6C5=O)cc4)n3)cc1)C2=O [CBK261192],93.9699
17,c1cc(CNc2nccnc2-c2ccsc2)ccn1 [CBK037513],100.154
18,COc1ccc(-c2cc(C(=O)NCC(=O)O)c(C)o2)cc1OC [CBK287130],98.9287
19,Cc1nn(C)cc1-c1cncn1CCCOc1ccc(Cl)cc1 [CBK281787],101.271
20,O=C(O)c1ccc(C(=O)O)c(-c2ccccc2)c1 [CBK261102],81.7608
21,CCCC(=O)Nc1ccc(C(=O)Nc2ccccc2C(=O)O)cc1 [CBK265111],129.922
22,O=C(O)c1ccccc1SC1CCc2ccccc2NC1=O (stereo not drawn) [CBK286683],71.345
23,Cc1ccccc1NS(=O)(=O)c1cc(C(=O)Nc2ccc(S(=O)(=O)N3CCCC3)cc2)ccc1C [CBK269004],85.8935
24,Fc1ccc(OCc2nnn[nH]2)c(F)c1 [CBK269473],93.3654
25,Cc1ccccc1C(=O)N/N=C/c1ccc(Sc2nnnn2-c2ccccc2)o1 [CBK263259],97.839
